In PubChem BioAssay AID1346428 (National Center for Advancing Translational Sciences (NCATS), 2018):
In all, about 48,000 compounds went through this assay and about 1,200 (2.5%) were called active. About 2% were inconclusive and are not listed.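 How the source made its calls: active means activation of at least 60% and not above a set upper limit (about 1 call in 100 departs from these limits); inconclusive means activation of 40% to 60%, or above that upper limit; inactive means activation under 40%.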 The list shows a part of the results.

Target: Probable G-protein coupled receptor 32 (Homo sapiens) (UniProt O75388)
Test: qHTS for Agonists of Human Resolvin D1 Receptor DRV1; further: 0% is about no effect
Conditions: CHO-K1 GPR32 beta-arrestin PathHunter luminescence, 90 min; at 76.9 µM; stronger effect = higher value; zero percent set by DMSO-only wells
Method in brief: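 GPR32 activation in stably transfected CHO-K1 cells, detected as beta-arrestin recruitment by enzyme-fragment complementation. Compound exposure: 90 min, 37 °C.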

Chain of UniProt O75388 (O75388 whole entry, looked up): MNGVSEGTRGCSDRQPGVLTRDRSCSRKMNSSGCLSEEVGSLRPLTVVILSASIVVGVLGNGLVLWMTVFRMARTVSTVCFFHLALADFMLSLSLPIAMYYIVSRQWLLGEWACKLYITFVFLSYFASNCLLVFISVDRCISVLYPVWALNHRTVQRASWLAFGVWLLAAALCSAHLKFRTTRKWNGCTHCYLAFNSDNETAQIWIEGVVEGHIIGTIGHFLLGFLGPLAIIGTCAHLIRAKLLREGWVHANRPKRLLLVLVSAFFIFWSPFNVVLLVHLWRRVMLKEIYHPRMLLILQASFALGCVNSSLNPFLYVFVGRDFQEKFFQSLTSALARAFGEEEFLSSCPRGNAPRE

activation, inactive:
COc1ccc(C)cc1NC(=O)CN1C(=O)COc2ccc(S(=O)(=O)NC3CCCC3)cc21 -4.88%, CN(C)CCNC(=O)c1ccc(Cn2c(=O)c3cccn3c3cccnc32)cc1 -20.8%, Cn1nc(-c2ccc(N3CCCCC3)c(NC(=O)c3ccc(Cl)cc3)c2)c2ccccc2c1=O -0.487%, CCCc1cc(=O)[nH]c(SCc2nc(-c3ccccc3F)no2)n1 10.2%, COc1ccc(-n2c(=O)c3c4c(sc3n3c(SC(C)C)nnc23)COC(C(C)C)C4)cc1 (stereo unspecified) 0.342%, Cc1ccccc1CSc1nc2c([nH]c3ccccc32)c(=O)n1C -8.57%, CCOC(=O)c1cc(S(=O)(=O)Nc2ccccc2OCC)[nH]n1 -18.9%, COc1ccc(NC(=O)c2cc(=O)c3ccc(C)c(C)c3o2)cc1Cl 0.276%, Cc1ccc(-n2ncc(C(=O)NCCN3CCc4ccccc4C3)c2C2CCNCC2)cc1C 4.31%, CCCn1c(=NC(=O)c2c(-c3c(F)cccc3Cl)noc2C)c(C(=O)OCC)cc2c(=O)n3ccccc3nc21 -5.44%, CC(=O)c1cccc(Nc2ccc3cc(S(=O)(=O)N4CCCC4)ccc3n2)c1 34.6%, Cc1cccc(CNC(=O)c2ccc(NC(=O)N3CCSc4ncccc43)cc2)c1 -5.57%, CC1CCN(S(=O)(=O)c2ccc3c(c2)N(CC(=O)NCCCN2CCCC(C)C2)C(=O)CS3)CC1 (stereo unspecified) -18.1%, CCOc1ccc(NC(=O)C(C)Sc2nc3ncccc3o2)cc1 (stereo unspecified) -18.3%, CCN(CC)CCN -9.03%, CC(=O)c1ccc(N2CCN(c3ncnc4c3cnn4C)CC2)cc1 12.8%, Cc1ccc2c(c1)-c1ncc(C(=O)c3cc(Br)ccc3O)cc1CO2 -40.2%, COc1ccc(-n2nc(C(=O)Nc3cccc(C)n3)c3c4ccccc4n(C)c3c2=O)cc1 7.38%, Cc1cccc(NC(=O)c2oc3ccc(S(=O)(=O)N4CCC5(CC4)OCCO5)cc3c2C)c1C 2.81%, CCC(C)NC(=O)C1CCC(CNS(=O)(=O)c2cccc3nsnc23)CC1 (stereo unspecified) 26.4%, CCS(=O)(=O)N1CC(=O)N(c2ccc(C)c(C)c2)C(C)(C(=O)NC2CCCCC2)C1 (stereo unspecified) 5.8%, O=c1oc2ccc(Br)cc2cc1-c1nc(-c2ccccc2)no1 -5.11%, CCc1ccc(-c2nc3c(c(SCc4ccc(F)cc4)n2)Cc2c(CO)cnc(C)c2O3)cc1 13.2%, COc1cccc(CNC(=O)Cn2ncc3c4ccccc4n(C)c3c2=O)c1 3.02%, COCCNC(=O)CCCn1c(SCC(=O)Nc2cccc(C)c2)nc2c(sc3ccccc32)c1=O -15.2%, CC1=C(C(=O)NCCc2ccc(Cl)cc2)C2(CCCCC2)OC1=O 6.97%, COc1ccc(N2CCN(C(c3ccccc3)c3nnc(-c4ccccc4Cl)o3)CC2)cc1 (stereo unspecified) -32.7%, Cc1cccc(NC(=O)CSc2nc3c(oc4ccccc43)c(=O)n2C(C)C)c1 -1.25%, COc1ccc(C(=O)c2oc3ccccc3c2NC(=O)COc2c(C)cc(C)cc2C)cc1 17.2%, COc1cccc(CNC(=O)c2c(O)nc3ccccn3c2=O)c1 -28.9%, CCOc1ccc(N2CC(c3nc4ccccc4n3CC(C)C)CC2=O)cc1 (stereo unspecified) -1.64%, COc1cc(-c2noc(-c3ccc(NCCc4ccccc4)c([N+](=O)[O-])c3)n2)cc(OC)c1OC 2.74%, Cc1ccc(C)c(N2CCN(C(=O)c3ccc4c(Cl)c5c(nc4c3)CCCC5)CC2)c1 -38.9%, CC(C)NC[C@@H](O)COc1cccc2ccccc12 6.95%, COc1cc(NC(=O)CCNS(=O)(=O)c2ccc3c(c2)CCN3C(=O)C2CC2)cc(OC)c1 -5.64%, COCC(=O)N1CCc2cc(OC)c(OC)cc2C1COc1ccc2c(C)cc(=O)oc2c1 (stereo unspecified) -6.52%, O=C(Cn1nnc2sc3c(c2c1=O)CCCC3)Nc1ccc(F)c(Cl)c1 -18.4%, CCN1C(=O)c2ccccc2Sc2ccc(NC(=O)c3ccc(C)c(F)c3)cc21 -10.2%, COc1cccc(NC(CNS(=O)(=O)c2ccc(C)cc2)c2ccccc2)c1 (stereo unspecified) 30.8%, COc1ccccc1N(CC(=O)NCCSCc1ccc(Cl)cc1)S(C)(=O)=O -3.42%, CN(Cc1ccccc1)c1ncnc2c1nc1n2CCCC1 -6.49%, Cc1ccccc1CNC(=O)CCCn1nc(C)c2sc3ccccc3c2c1=O -20.7%, COc1ccc(C2NC(=O)NC(C)=C2C(=O)Nc2cc(C)cc(C)c2)c(OC)c1 (stereo unspecified) -0.261%, CCc1c(C)nc2nncn2c1Nc1ccc(C)c(F)c1 -4.08%, CCCS(=O)(=O)NCCc1csc2nc(-c3ccc(OC)cc3)nn12 -10.6%, Cc1cc(-c2ccc(C)c(S(=O)(=O)NCc3ccc(Cl)cc3)c2)on1 14.2%, Cc1ccc(CS(=O)(=O)Cc2ccc(C(=O)NCCc3ccc(Cl)cc3)o2)cc1 -9.5%, CCCCOc1cccc(C(=O)Nc2cccc3ccc(C)nc23)c1 -7.9%, COc1cc(OC)cc(C(=O)Nc2ccc3nc(N4CCC(C)CC4)cc(C)c3c2)c1 -2.54%, CCC12CN3CC(CC)(CN(C1)C3c1ccc(OCc3ccccc3)cc1)C2=O (stereo unspecified) 4.36%, Cc1cc(C)c2c(=O)cc(C(=O)Nc3ccccc3Cl)oc2c1 1.54%, Cc1ccc2c(CC(=O)Nc3cc(C(F)(F)F)ccc3Cl)coc2c1C -5.64%, Cc1ccc2oc(=O)n(CCNC(=O)Nc3ccccc3Cl)c2c1 -6.47%, COc1ccc(C2CC(=O)Nc3c2c(=O)nc2c(C)cccn32)cc1 (stereo unspecified) 10.6%, CCOC(=O)c1c(C)[nH]c(C)c1S(=O)(=O)N1CCC(C(=O)Nc2ccccn2)CC1 2.24%, O=S(=O)(O)NC1CCCCC1 -0.109%, CC(C)c1ccc(NS(=O)(=O)c2ccc3[nH]c(=O)ccc3c2)cc1 6.29%, COC(=O)c1ccc(Cn2nc(-c3ccc(C)c(C)c3)ccc2=O)cc1 -16.8%, CCc1ccc(NC(=O)C2CCCN(S(=O)(=O)c3c(C)[nH]c(=O)[nH]c3=O)C2)cc1 (stereo unspecified) 6.39%, CC(C)c1ccc(NC(=O)C2CCCN(S(=O)(=O)c3cccc4nonc34)C2)cc1 (stereo unspecified) 17%, O=C(Nc1noc2ccccc12)c1cccc(F)c1 -15.9%, COc1ccc(Cl)cc1Nc1ncnc2c1nc1n2CCCC1 -10.5%, O=C(CCS(=O)(=O)c1cc2c3c(c1)CCN3C(=O)CC2)NCc1ccc(F)cc1 -8.97%, COCCc1nn2c(=O)cc(COC(=O)COc3ccccc3C)nc2s1 -0.983%, CCC(=O)Nc1ccc2nc(SCC(=O)N3CCc4ccccc43)sc2c1 -7.22%, CCOC(=O)c1ccccc1NC1(c2ccc(OC)cc2)C(=O)c2ccccc2C1=O -14.5%, O=c1c2ccccc2n2c(-c3ccc(F)c(F)c3)nnc2n1CCc1ccccc1 -4.69%, Cc1cc(C)c(NC(=O)CSc2nnc3[nH]c(=O)cc(C)n23)c(C)c1 5.11%, COC(=O)c1ccc(C2c3c(oc4cc(C)c(C)cc4c3=O)C(=O)N2c2ccccn2)cc1 (stereo unspecified) 1.93%, CCOC(=O)c1c(S(=O)(=O)N2CCCC(C(=O)Nc3ccc(C)cc3C)C2)c(C)n(CC)c1C (stereo unspecified) 9.58%, CCOC(=O)C1CCN(C(=O)CSc2c3c(nc4ccc(Cl)cc24)CCCC3)CC1 -13.5%, CC(=O)Nc1ccc(C(=O)CSc2nnc3cc(C)c4ccccc4n23)cc1 6.1%, Cc1cc(C)c(NC(=O)Cn2c(=O)n(CCC(=O)NCc3ccc4c(c3)OCO4)c(=O)c3ccccc32)c(C)c1 13.5%, CCOc1ccc(S(=O)(=O)Nc2ccc3c(c2)c(C(C)=O)c(C)n3S(=O)(=O)c2ccc(OCC)cc2)cc1 -10.8%, Cc1ccc(CNC(=O)c2ccc(-c3nc(CN4CCc5ccccc54)c(C)o3)cc2)cc1 -0.238%, CCCCNC(=O)c1ccc2c(=O)n(-c3ccccc3)c(=O)[nH]c2c1 9.96%, O=C(NCc1ccc(Cl)cc1)C(=O)NCC(c1ccco1)S(=O)(=O)c1cccs1 (stereo unspecified) -14.5%, Cc1ccc(NC(=O)c2sc3nc(-c4ccc(F)cc4)cn3c2C)c(C)c1 -12.9%, COc1ccc(CCC(=O)NC2CC(=O)N(c3ccc(C)c(C)c3)C2)cc1 (stereo unspecified) -11.8%, N#Cc1ccccc1Cn1nnc2c(=O)[nH]c(C3CCCN(S(=O)(=O)c4ccc(F)cc4)C3)nc21 (stereo unspecified) -2%, O=C(Nc1nc2nc(-c3ccccc3)cc(=O)n2[nH]1)c1ccc(F)cc1 13.3%, CCc1ccccc1N1CC(c2nc3ccccc3n2Cc2cccc(C)c2)CC1=O (stereo unspecified) 35.9%, O=C(Nc1sc2c(c1C(=O)NCc1ccccc1)CCCC2)c1cc(=O)c2cc(Cl)ccc2o1 2.22%, COc1cccc(CNC(=O)Cn2ccc3cc(S(=O)(=O)N4CCCC4)ccc32)c1 8.08%, CCOc1ccc(S(=O)(=O)NCCc2sc(-c3ccc(C)cc3)nc2C)cc1 7.75%

activation, active:
COc1cccc(C(=O)Nc2nnc(S(=O)(=O)N3CCOCC3)s2)c1 69.6%
